Paper PMC6212790
The other results are listed elsewhere or left out. At the low end of the ranking the order means little.
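Also: rank score from −0.5 (least bound) to 0.5 (best bound).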

Each sequence was assayed against T1, GST-Rok-C97-191 (UniProt O34857) (assay: protein binding microarray). Details: Rok is a gene silencer of Bacillus subtilis; high values mean tight binding; most listed sequences are background and not binding sites; double strand, one strand shown.
T1 sequence: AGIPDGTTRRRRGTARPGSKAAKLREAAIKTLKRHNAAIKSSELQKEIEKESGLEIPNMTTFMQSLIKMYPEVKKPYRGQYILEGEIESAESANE
ACGATGGG showed a binding signal of 0.00184 E-score. Work on TATCACGA yielded a binding signal of 0.139 E-score. Sequence AGTCACAA has a binding signal of 0.034 E-score. Sequence CAACCTAA has a binding signal of -0.167 E-score. For GCATCCCC, the binding signal was -0.165 E-score. ACGGATTC showed a binding signal of 0.136 E-score. With CCATGCTC the binding signal was -0.204 E-score. In the case of CCATCATC, the binding signal is reported as -0.133 E-score. GAATTGCA was tested, and the binding signal was -0.135 E-score. For AGAACACC, the binding signal was -0.0349 E-score. Sequence CTAAAACC has a binding signal of -0.00998 E-score. Sequence CCATAGCC has a binding signal of -0.307 E-score. With ACACCGGT the binding signal was -0.0234 E-score. In the case of CGGATTGA, the binding signal is reported as -0.00596 E-score. AGTCGTGA showed a binding signal of -0.0621 E-score. Work on ATGCTGGG yielded a binding signal of -0.124 E-score. GGCCCTGA was tested, and the binding signal was -0.152 E-score. Work on CGTGTTTC yielded a binding signal of -0.14 E-score. Sequence AGTATCCC has a binding signal of -0.0158 E-score. TATGCATA was tested, and the binding signal was 0.126 E-score. CCGCTAGA gave a binding signal of 0.1 E-score. In the case of AGGGTCCC, the binding signal is reported as -0.127 E-score. With GGAAGACA the binding signal was -0.258 E-score. Work on AAGATACT yielded a binding signal of 0.285 E-score. For ATGGTTCC, the binding signal was 0.00181 E-score. Work on CGAGTCAG yielded a binding signal of -0.162 E-score. AACTGAAC showed a binding signal of 0.106 E-score. In the case of TGATCAAA, the binding signal is reported as 0.0322 E-score. AGCCTTAT gave a binding signal of -0.11 E-score. In the case of CGGCTTCC, the binding signal is reported as -0.254 E-score. ATGTTATC was tested, and the binding signal was 0.139 E-score. In the case of ATACACAC, the binding signal is reported as 0.00608 E-score. Work on AAAGGCCG yielded a binding signal of -0.286 E-score. Work on GAGCCAAA yielded a binding signal of -0.195 E-score. In the case of CCTCCAAC, the binding signal is reported as -0.157 E-score. For CCGCTCTC, the binding signal was -0.292 E-score. Work on AATCCAGG yielded a binding signal of -0.117 E-score. In the case of CTCCTCTA, the binding signal is reported as -0.0219 E-score. In the case of AGGTCGGG, the binding signal is reported as -0.237 E-score. CTTATTGC gave a binding signal of -0.0468 E-score. With AGATGATA the binding signal was 0.237 E-score. Work on AACATTGC yielded a binding signal of 0.181 E-score. CATGCCAG showed a binding signal of -0.171 E-score. CACAAAAC showed a binding signal of -0.0127 E-score. AGCTATTG was tested, and the binding signal was 0.145 E-score. ACGGTTGC showed a binding signal of -0.0207 E-score. Sequence AGCCGAAC has a binding signal of -0.058 E-score. In the case of ACGTCGAG, the binding signal is reported as 0.0934 E-score. AGAGCTCT was tested, and the binding signal was -0.214 E-score. In the case of AGTTCGGG, the binding signal is reported as 0.0887 E-score. With GCGAATCC the binding signal was -0.0262 E-score. CGTGGCGC gave a binding signal of -0.314 E-score. CCGTCAGC was tested, and the binding signal was -0.377 E-score. Work on AATAGCCC yielded a binding signal of -0.0136 E-score. Work on ATATCAAC yielded a binding signal of 0.215 E-score. ACTAGACG showed a binding signal of 0.0634 E-score. AGAAAGCC gave a binding signal of 0.0693 E-score. In the case of CTAACCAA, the binding signal is reported as 0.0439 E-score. For ATGAGGAA, the binding signal was -0.178 E-score. Sequence AGTCCGAT has a binding signal of -0.123 E-score. With ACATTGCG the binding signal was 0.0502 E-score. CAATCGGG showed a binding signal of -0.105 E-score. In the case of CACACTCA, the binding signal is reported as -0.155 E-score. For CACCCTGG, the binding signal was -0.233 E-score. With AGAGTGCC the binding signal was -0.13 E-score. In the case of AGTAGGGC, the binding signal is reported as 0.1 E-score. Work on GCACTGGA yielded a binding signal of -0.289 E-score. Sequence ACTGGGGC has a binding signal of -0.241 E-score. ATAGGACA was tested, and the binding signal was 0.0985 E-score. With AGGCGCAC the binding signal was -0.137 E-score. CTCCGAGC showed a binding signal of -0.00815 E-score. ATCTATTC gave a binding signal of 0.088 E-score. CATCAATA showed a binding signal of -0.0332 E-score. Work on ACCACGGC yielded a binding signal of -0.0922 E-score. With GTCTAGGA the binding signal was -0.157 E-score. In the case of AGTCTGGC, the binding signal is reported as -0.0228 E-score. For ACACATGA, the binding signal was 0.133 E-score. For CGCAGTCC, the binding signal was -0.234 E-score. GCGACGAC was tested, and the binding signal was -0.284 E-score. GCATCGCC showed a binding signal of -0.276 E-score. Sequence AGATTAGC has a binding signal of 0.212 E-score. AGATAAAA was tested, and the binding signal was 0.23 E-score. For AGTCCGTA, the binding signal was 0.0589 E-score. Sequence GTGTCGCA has a binding signal of -0.177 E-score. Work on GACCCCAC yielded a binding signal of -0.316 E-score. CTCTTGCC gave a binding signal of -0.152 E-score. With ATACCGCC the binding signal was 0.0537 E-score. ATCTATGG gave a binding signal of 0.243 E-score. Sequence CTAATGTA has a binding signal of 0.185 E-score. ACACGCAC gave a binding signal of -0.0614 E-score. CAACGAGA showed a binding signal of 0.0419 E-score. For AGTGGTAC, the binding signal was 0.202 E-score. Work on GGCGCACA yielded a binding signal of -0.176 E-score. Work on CCGCCCGA yielded a binding signal of -0.2 E-score.
